# Measured values: PubChem BioAssay AID1468 (National Center for Advancing Translational Sciences (NCATS), 2008)
# Screen size: about 280,000 compounds; about 1,100 (0.39%) were called active. This list was built around the results that the source calls inconclusive (neither active nor inactive); the mix of calls is not that of the screen. Calls come from the whole dose curve; as a rule, active = well fitted inhibition curve with a large enough effect; inconclusive = small, poorly fitted or top-dose-only effect, or effect the other way; inactive = flat fitted curve, though single readings scatter. Potencies of inconclusive entries are left out as doubtful fits.
# Target: Microtubule-associated protein tau (Homo sapiens) (UniProt P10636)
# Experiment: qHTS for Inhibitors of Tau Fibril Formation, Fluorescence Polarization; note: nearly all actives have a fitted effect of over 55% in size
# Conditions: K18 P301L tau heparin fibrillization, Alexa594 FP, 6 h; series mostly up to 57.7 µM
# Outline: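 Recombinant K18 P301L […], labeled with Alexa 594 at 0.24 uM over 15 uM unlabeled; heparin inducer 20 uM final; 37 C, 6 hr; FP endpoint.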
# % is set by controls: 0 for no effect and ±100 for the full control effect; potency is the fitted concentration of half-maximal effect; tags give direction and shape of the fitted curve.
# UniProt P10636, sequence (P10636 whole entry, looked up): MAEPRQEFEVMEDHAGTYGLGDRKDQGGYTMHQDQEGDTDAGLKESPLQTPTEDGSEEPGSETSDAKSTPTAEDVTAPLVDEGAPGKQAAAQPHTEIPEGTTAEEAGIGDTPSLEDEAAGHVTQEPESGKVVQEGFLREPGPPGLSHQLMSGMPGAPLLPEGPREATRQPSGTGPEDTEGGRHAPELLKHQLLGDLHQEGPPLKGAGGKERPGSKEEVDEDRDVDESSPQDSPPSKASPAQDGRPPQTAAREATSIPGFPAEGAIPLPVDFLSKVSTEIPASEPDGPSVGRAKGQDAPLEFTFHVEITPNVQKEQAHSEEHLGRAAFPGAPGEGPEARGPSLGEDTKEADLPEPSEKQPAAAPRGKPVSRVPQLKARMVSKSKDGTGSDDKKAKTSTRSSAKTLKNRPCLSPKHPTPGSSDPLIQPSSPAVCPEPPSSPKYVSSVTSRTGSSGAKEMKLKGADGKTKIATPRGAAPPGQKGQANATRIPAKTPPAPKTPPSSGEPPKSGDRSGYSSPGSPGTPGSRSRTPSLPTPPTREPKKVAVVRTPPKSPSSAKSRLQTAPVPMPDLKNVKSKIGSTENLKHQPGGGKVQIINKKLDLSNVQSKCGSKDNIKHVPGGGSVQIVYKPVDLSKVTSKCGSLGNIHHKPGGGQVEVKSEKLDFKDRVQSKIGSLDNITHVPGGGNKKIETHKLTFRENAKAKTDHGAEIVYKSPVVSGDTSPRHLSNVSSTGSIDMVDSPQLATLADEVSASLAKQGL
Compound,Potency,"activity, negative = inhibition"
CCCCNC(=O)Nc1c(C)cc(SC#N)cc1C,"inconclusive [inhibitor, partial curve]",–
Cc1ccc(OCc2nc(-c3ccc(C(=O)N4CCN(c5ccccc5F)CC4)cc3)oc2C)cc1,"inconclusive [activator, single point]",–
CO[C@@H]1COC(=O)[C@H]2CCCN2C(=O)[C@@H](C)COC(=O)C/C=C\[C@H]1C,–,inactive: -2.94% [at 11.6 µM]
COC(=O)c1cn(C(=O)c2ccccc2Cl)c2ccccc12,"inconclusive [inhibitor, partial curve]",–
COc1ccc(Cl)cc1NC(=O)c1cc(S(=O)(=O)NC2CCCCCC2)ccc1F,"inconclusive [inhibitor, partial curve]",–
CCCCCn1c(=O)[nH]c2cc(C(=O)Nc3cc(C)cc(C)c3)ccc2c1=O,"inconclusive [inhibitor, partial curve]",–
CN(c1ccccc1)S(=O)(=O)c1cc(C(=O)Nc2nc3ccccc3[nH]2)ccc1Cl,"inconclusive [inhibitor, partial curve]",–
CCc1ccc(C(=O)c2cn(CC(=O)Nc3cccc(OC)c3)c3ccc(OC)cc3c2=O)cc1,"inconclusive [inhibitor, partial curve, poor fit]",–
O=C(CSc1nnnn1-c1ccccc1)Nc1ncc2c(n1)CC(c1ccccc1)CC2=O (stereo not given),"inconclusive [inhibitor, full curve, poor fit]",–
COCCn1c(SCC(=O)NC2CCCC2)nc2cccnc21,"inconclusive [inhibitor, full curve, poor fit]",–
CC1(C)Cc2c(sc3nnn(Cc4ccccc4)c(=O)c23)CO1,inactive,–
CN(C)CCCN(C(=O)COc1ccccc1)c1nc2ccc(Cl)cc2s1,"inconclusive [inhibitor, single point]",–
O=C(c1cc2ccccc2oc1=O)N1CCN(c2ccc(Cl)cc2)CC1,inactive,–
CCOC(=O)c1ccc(N2C(=O)c3[nH]nc(-c4ccc(C)cc4)c3C2c2cccc(F)c2)cc1 (stereo not given),"inconclusive [inhibitor, partial curve]",–
CC(C)C(=O)NC(c1ccc([N+](=O)[O-])cc1)c1c(O)ccc2ccccc12 (stereo not given),"inconclusive [inhibitor, single point]",–
COc1ccccc1N1CCN(C(=O)c2ccc3[nH]c4c(c3c2)CCCC4)CC1,"inconclusive [activator, single point]",–
O=C(NCCNC(=O)c1cc(OCC(F)(F)F)ccc1OCC(F)(F)F)Nc1ccc(OC(F)(F)F)cc1,active: 3.55 µM,–
O=C(NCc1ccccc1)c1cc(-c2cccs2)on1,inactive,–
CCc1cccc(NC(=O)CN2C(=O)COc3ccc(S(=O)(=O)Nc4ccccc4)cc32)c1,"inconclusive [inhibitor, single point]",–
Cc1cc(NC(=O)Nc2ccccc2F)ccc1Br,"inconclusive [inhibitor, partial curve]",–

Compound,Potency,"activity, negative = inhibition"
COc1ccc(-c2nc3cc(C)ccn3c2NCc2ccc3c(c2)OCO3)cc1,inactive,–
O=C(N/N=C/c1cccc(NC(=O)c2ccc(Cl)cc2)c1)c1ccc(O)cc1,"inconclusive [inhibitor, single point]",–
O=C(Nc1ccc(Br)cc1)c1ccc(F)c(S(=O)(=O)NCc2cccs2)c1,"inconclusive [inhibitor, partial curve]",–
CCN(c1ccccc1)S(=O)(=O)c1cc(C(=O)Nc2ccc(F)c(F)c2)ccc1F,active: 14.1 µM,–
O=C1CC(N2CCC(c3nc4ccccc4[nH]3)CC2)C(=O)N1Cc1ccccc1 (stereo not given),inactive,–
Cn1c(=O)cc(SCC(=O)N2CCCC2)c2ccccc21,inactive,–
CCN(c1ccccc1)S(=O)(=O)c1ccc(Cl)c(NC(=O)COC(=O)c2ccc(Cl)c(N)c2)c1,"inconclusive [inhibitor, partial curve]",–
O=C(COc1ccccc1F)Nc1ccc2nc(SCCOc3ccccc3)sc2c1,"inconclusive [inhibitor, full curve, poor fit]",–
Cc1ccc(NC(=O)Cn2c(=O)n(Cc3nc(-c4ccccc4)no3)c(=O)c3cc4c(cc32)OCO4)cc1F,"inconclusive [inhibitor, partial curve]",–
CS(=O)(=O)c1ccc(S(=O)CC(=O)OCc2ccccc2)c([N+](=O)[O-])c1 (stereo not given),"inconclusive [inhibitor, full curve]",–
CCOC(=O)c1cc(CC)sc1N1C(=O)CC(Sc2ccccc2C(=O)O)C1=O (stereo not given),"inconclusive [inhibitor, partial curve, poor fit]",–
COc1cc(/C=C(\C#N)C(=O)NCC2CCCO2)ccc1O (stereo not given),inactive,–
O=C(C=C=Nc1ccccc1)C(=O)N=C=Cc1ccccc1,"inconclusive [inhibitor, partial curve]",–
O=C(Oc1oc(-c2ccco2)nc1C=Nc1ccc(Cl)cc1)c1ccco1,"inconclusive [inhibitor, single point]",–
O=C(/C(=C/c1ccc(Cl)cc1)c1nc2ccccc2[nH]1)c1ccccc1,"inconclusive [inhibitor, partial curve]",–
Cc1ccc(/C=C2\SC(=S)N(Cc3ccccc3)C2=O)o1,"inconclusive [inhibitor, single point]",–
CC(C)CCNC(=O)CNC(=S)N(CCCN1CCOCC1)Cc1cccs1,"inconclusive [activator, single point]",–
CCN(CC)c1ccc(NC(=O)C2CCN(c3nnc(-n4cccc4)s3)CC2)c(C)c1,inactive,–
O=C(NC(NC(=S)Nc1ccccc1)C(Cl)(Cl)Cl)c1cccc(Cl)c1 (stereo not given),"inconclusive [inhibitor, single point]",–
Cc1ccc(-n2c(SCC(=O)N/N=C/C=C/c3ccccc3[N+](=O)[O-])nc3ccccc3c2=O)cc1,"inconclusive [activator, single point]",–
